Source: paper PMC13278974, “Nucleophagy removes cytotoxic trapped PARP1” (Nature Cell Biology, 2026)
No constants are given. Whether binding was seen depends on the method and setting. For part of these data: In cells and extracts the contact can be indirect. Some binding calls cover weakened binding; strength is not graded here.

Amino acid sequences for entries named in this document (tags omitted). A change or cut given only in a name is not applied to a line headed by its entry.
UniProt P09874: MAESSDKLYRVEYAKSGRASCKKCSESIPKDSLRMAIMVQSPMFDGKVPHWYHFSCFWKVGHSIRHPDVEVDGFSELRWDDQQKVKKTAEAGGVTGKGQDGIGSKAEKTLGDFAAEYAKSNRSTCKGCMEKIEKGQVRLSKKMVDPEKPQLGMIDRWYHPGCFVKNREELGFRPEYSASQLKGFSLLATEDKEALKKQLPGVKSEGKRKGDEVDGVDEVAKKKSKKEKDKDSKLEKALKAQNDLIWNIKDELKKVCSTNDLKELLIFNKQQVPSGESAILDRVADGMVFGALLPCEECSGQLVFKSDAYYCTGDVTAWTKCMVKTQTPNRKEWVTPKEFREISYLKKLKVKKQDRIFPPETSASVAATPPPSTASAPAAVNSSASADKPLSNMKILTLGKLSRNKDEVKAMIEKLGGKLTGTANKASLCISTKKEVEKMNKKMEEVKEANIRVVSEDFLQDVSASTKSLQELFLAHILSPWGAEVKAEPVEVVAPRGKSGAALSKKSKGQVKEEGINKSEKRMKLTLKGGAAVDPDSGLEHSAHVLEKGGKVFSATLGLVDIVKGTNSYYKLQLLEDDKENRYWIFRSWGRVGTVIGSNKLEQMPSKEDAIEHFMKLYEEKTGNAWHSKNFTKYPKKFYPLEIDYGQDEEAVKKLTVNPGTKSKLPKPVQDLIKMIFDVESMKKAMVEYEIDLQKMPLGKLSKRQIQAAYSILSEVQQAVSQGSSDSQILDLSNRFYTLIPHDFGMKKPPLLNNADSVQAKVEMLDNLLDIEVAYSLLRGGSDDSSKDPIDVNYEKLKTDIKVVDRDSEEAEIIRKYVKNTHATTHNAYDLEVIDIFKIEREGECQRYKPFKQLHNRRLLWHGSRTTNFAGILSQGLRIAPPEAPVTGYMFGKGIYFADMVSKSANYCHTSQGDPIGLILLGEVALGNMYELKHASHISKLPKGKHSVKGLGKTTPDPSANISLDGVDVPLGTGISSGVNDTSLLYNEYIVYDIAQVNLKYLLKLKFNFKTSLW
UniProt Q9Y6I9: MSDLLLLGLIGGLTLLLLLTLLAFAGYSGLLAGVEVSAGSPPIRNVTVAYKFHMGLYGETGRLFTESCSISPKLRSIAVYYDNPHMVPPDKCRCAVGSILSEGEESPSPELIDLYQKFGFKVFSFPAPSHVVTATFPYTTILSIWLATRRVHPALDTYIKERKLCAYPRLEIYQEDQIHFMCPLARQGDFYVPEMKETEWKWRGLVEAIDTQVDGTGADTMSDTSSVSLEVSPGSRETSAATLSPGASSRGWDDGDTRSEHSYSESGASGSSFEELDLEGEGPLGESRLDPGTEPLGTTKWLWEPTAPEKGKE

How the values were obtained:
[1] = target: PARP1–GFP (PARP1^WT–GFP) stably expressed in CAL51 cells (UniProt P09874); assay: proximity ligation; PLA between GFP and V5 in fixed CAL51 cells stably expressing PARP1–GFP and TEX264–V5, untreated or talazoparib for 3 h
[2] = target: PARP1–GFP stably expressed in HeLa cells (UniProt P09874); assay: co-IP; PARP1–GFP captured on GFP-trap beads from the chromatin fraction of HeLa cells expressing TEX264 variants, after talazoparib and MMS for 3 h
[3] = target: PARP1–GFP (PARP1^WT–GFP) stably expressed in CAL51 cells (UniProt P09874); assay: co-IP; PARP1–GFP captured on GFP-trap beads from the Benzonase-solubilised chromatin fraction of CAL51 cells, with 50 µg/ml ethidium bromide; cells untreated or treated with talazoparib (200 nM) and MMS (0.01%) for 3 h, with control siRNA or siTEX264; washes with 150 mM NaCl, 0.05% Triton X-100
[4] = target: T1, His–PARP1, full length, recombinant (called GFP-PARP1 / PARP1–GFP in the results and legend) (UniProt P09874 1-1014); assay: pull-down; PARP1 (2.5 µM) held on PARP1-trap beads, TEX264 (2.5 µM) added in 50 mM HEPES pH 7.4, 500 mM NaCl, 0.01% Triton X-100, 1 mM TCEP, 2 h at 4 °C; washes with 0.1% Triton X-100; western blot; both purified
T1 construct: PARP1, full length, cloned into NcoI and BamHI sites of pNIC28; The methods describe only His–PARP1 from pNIC28 with no GFP; Whether GFP was on the protein is open; It was held on PARP1-trap beads; also called pNIC28–PARP1; source: E. coli Rosetta (DE3), purified (HisTrap, SEC Superdex 200)

Substance | binding [2] | binding [3] | other results
TEX264–V5 stably expressed in CAL51 PARP1–GFP cells (from UniProt Q9Y6I9 1-313) |  |  | binding [1]: binds
TEX264–272 (TEX264 lacking the C terminus from S272 onwards) (from UniProt Q9Y6I9 1-271) (domain or fragment) | no binding |  | 
TEX264^WT–V5 expressed in HeLa cells (from UniProt Q9Y6I9 1-313) | binds |  | 
p97, endogenous in CAL51 cells (from UniProt P55072 1-806) (enzyme) |  | binds | 
His–TEX264-GyrI (34-185) (from UniProt Q9Y6I9 34-185) (domain or fragment) |  |  | binding [4]: no binding (tested: 2.5 µM)
TEX264, endogenous in CAL51 cells (from UniProt Q9Y6I9 1-313) |  | binds | 
